pIC50: −log10 of the molar value. By IC50 is meant the dose at which the fit gives 50% viability; where the fit passes the top or lowest dose, that dose stands as a limit. AUC sums up the same curve from the lowest dose to the 256-fold higher top dose: 1 means no effect, lower means more sensitive. For part of these data: A top dose marked as inferred comes from the curve model; the source does not state it.
How the values were obtained:
Test in all cases: Viability of human cancer cell lines after 72 h of drug (GDSC screen)
NVP-BHG712 = compound: Cc1ccc(C(=O)Nc2cccc(C(F)(F)F)c2)cc1Nc1nc(-c2cccnc2)nc2c1cnn2C [NVP-BHG712]; conditions: top dose 10.24 µM; top dose inferred
Experimental: (§1)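 Human cancer cell lines in 384-well plates, medium with 10% serum, drug for 72 h over a 256-fold dose range (nine 2-fold or five 4-fold steps up to the top dose). Adherent lines were fixed and stained with the nucleic acid dye Syto60, suspension lines read with resazurin; signal relative to control wells, capped at 0 and 100%. One two-parameter sigmoid per drug and line, fitted in a mixed model over all curves with the slope shared within a line.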

Midostaurin = compound: CO[C@@H]1[C@H](N(C)C(=O)c2ccccc2)C[C@H]2O[C@]1(C)n1c3ccccc3c3c4c(c5c6ccccc6n2c5c31)C(=O)NC4 [Midostaurin]; conditions: top dose 0.512 µM; top dose inferred
Experimental: as §1

Mitomycin C = compound: CO[C@@]12[C@H](COC(N)=O)C3=C(C(=O)C(C)=C(N)C3=O)N1C[C@@H]1N[C@@H]12 [Mitomycin C]; conditions: top dose 16 µM
Experimental: as §1

Bosutinib = compound: COc1cc(Nc2c(C#N)cnc3cc(OCCCN4CCN(C)CC4)c(OC)cc23)c(Cl)cc1Cl [Bosutinib]; conditions: top dose 2 µM
Experimental: as §1

IOX2 = compound: O=C(O)CNC(=O)c1c(O)c2ccccc2n(Cc2ccccc2)c1=O [IOX2]; conditions: top dose 0.1 µM; top dose inferred
Experimental: as §1

Cell Line | AUC (NVP-BHG712) | pIC50 (NVP-BHG712) | AUC (Midostaurin) | pIC50 (Midostaurin) | AUC (Mitomycin C) | AUC (Bosutinib) | pIC50 (Bosutinib) | AUC (IOX2) | pIC50 (IOX2) | pIC50 (Mitomycin C)
Mewo (melanoma, adherent) | 0.984 | < 4.99 | 0.974 | < 6.29 | 0.8 | 0.887 | < 5.70 | 0.982 | < 7.00 | 
VMRC-RCZ (kidney, adherent) | 0.936 | < 4.99 | 0.846 | 6.33 | 0.273 | 0.929 | < 5.70 | 0.978 | < 7.00 | 6.70
H2373 (mesothelioma, adherent) | 0.948 | < 4.99 | 0.96 | < 6.29 | 0.617 | 0.88 | < 5.70 | 0.975 | < 7.00 | 5.64
H2369 (mesothelioma, adherent) | 0.984 | < 4.99 | 0.857 | 6.36 | 0.528 | 0.761 | 6.14 | 0.977 | < 7.00 | 5.92
HuCCT1 (biliary tract, adherent) | 0.954 | < 4.99 | 0.765 | 6.68 | 0.481 | 0.904 | < 5.70 | 0.982 | < 7.00 | 6.05
NCI-H441 (lung adenocarcinoma, adherent) | 0.979 | < 4.99 | 0.948 | < 6.29 | 0.146 | 0.981 | < 5.70 | 0.975 | < 7.00 | > 7.20
MDA-MB-330 (breast, adherent) | 0.982 | < 4.99 | 0.975 | < 6.29 | 0.513 | 0.978 | < 5.70 | 0.984 | < 7.00 | 5.96
BT-474 (breast, adherent) | 0.957 | < 4.99 | 0.985 | < 6.29 | 0.631 | 0.979 | < 5.70 | 0.97 | < 7.00 | 5.62
SCC-25 (head and neck, adherent) | 0.894 | < 4.99 | 0.91 | < 6.29 | 0.458 | 0.936 | < 5.70 | 0.982 | < 7.00 | 6.12
PCI-4B (head and neck, adherent) | 0.953 | < 4.99 | 0.841 | 6.48 | 0.128 | 0.692 | 6.38 | 0.981 | < 7.00 | 7.14
CAL-120 (breast, adherent) | 0.859 | < 4.99 | 0.766 | 6.61 | 0.697 | 0.955 | < 5.70 | 0.978 | < 7.00 | 5.37
KURAMOCHI (ovary, adherent) | 0.897 | < 4.99 | 0.842 | 6.35 | 0.387 | 0.977 | < 5.70 | 0.892 | < 7.00 | 6.33
8505C (thyroid, adherent) | 0.826 | 5.17 | 0.809 | 6.54 | 0.372 | 0.904 | < 5.70 | 0.925 | < 7.00 | 6.36

Source: the supplement of paper PMC4967469
